This is one part of the list. Binding of human transcription factors and regulators to the viral nucleoprotein by AlphaScreen, crude cell-free proteins, amounts not normalised, one pass. Fold of the Venus control; higher = more signal. No active / inactive call. Single-pass screen; sequences are the whole Swiss-Prot entries looked up by name.
B1: POU4F1, Q01851 (protein)
chain: MMSMNSKQPHFAMHPTLPEHKYPSLHSSSEAIRRACLPTPPLQSNLFASLDETLLARAEALAAVDIAVSQGKSHPFKPDATYHTMNSVPCTSTSTVPLAHHHHHHHHHQALEPGDLLDHISSPSLALMAGAGGAGAAAGGGGAHDGPGGGGGPGGGGGPGGGPGGGGGGGPGGGGGGPGGGLLGGSAHPHPHMHSLGHLSHPAAAAAMNMPSGLPHPGLVAAAAHHGAAAAAAAAAAGQVAAASAAAAVVGAAGLASICDSDTDPRELEAFAERFKQRRIKLGVTQADVGSALANLKIPGVGSLSQSTICRFESLTLSHNNMIALKPILQAWLEEAEGAQREKMNKPELFNGGEKKRKRTSIAAPEKRSLEAYFAVQPRPSSEKIAAIAEKLDLKKNVVRVWFCNQRQKQKRMKFSATY
B2: TEF, Q10587 (protein)
chain: MSDAGGGKKPPVDPQAGPGPGPGRAAGERGLSGSFPLVLKKLMENPPREARLDKEKGKEKLEEDEAAAASTMAVSASLMPPIWDKTIPYDGESFHLEYMDLDEFLLENGIPASPTHLAHNLLLPVAELEGKESASSSTASPPSSSTAIFQPSETVSSTESSLEKERETPSPIDPNCVEVDVNFNPDPADLVLSSVPGGELFNPRKHKFAEEDLKPQPMIKKAKKVFVPDEQKDEKYWTRRKKNNVAAKRSRDARRLKENQITIRAAFLEKENTALRTEVAELRKEVGKCKTIVSKYETKYGPL
B3: ZIC1, Q15915 (protein)
chain: MLLDAGPQYPAIGVTTFGASRHHSAGDVAERDVGLGINPFADGMGAFKLNPSSHELASAGQTAFTSQAPGYAAAAALGHHHHPGHVGSYSSAAFNSTRDFLFRNRGFGDAAAAASAQHSLFAASAGGFGGPHGHTDAAGHLLFPGLHEQAAGHASPNVVNGQMRLGFSGDMYPRPEQYGQVTSPRSEHYAAPQLHGYGPMNVNMAAHHGAGAFFRYMRQPIKQELICKWIEPEQLANPKKSCNKTFSTMHELVTHVTVEHVGGPEQSNHICFWEECPREGKPFKAKYKLVNHIRVHTGEKPFPCPFPGCGKVFARSENLKIHKRTHTGEKPFKCEFEGCDRRFANSSDRKKHMHVHTSDKPYLCKMCDKSYTHPSSLRKHMKVHESSSQGSQPSPAASSGYESSTPPTIVSPSTDNPTTSSLSPSSSAVHHTAGHSALSSNFNEWYV
B4: ARID3B, Q8IVW6 (protein)
chain: MEPLQQQQQQQQQQQKQPHLAPLQMDAREKQGQQMREAQFLYAQKLVTQPTLLSATAGRPSGSTPLGPLARVPPTAAVAQVFERGNMNSEPEEEDGGLEDEDGDDEVAEVAEKETQAASKYFHVQKVARQDPRVAPMSNLLPAPGLPPHGQQAKEDHTKDASKASPSVSTAGQPNWNLDEQLKQNGGLAWSDDADGGRGREISRDFAKLYELDGDPERKEFLDDLFVFMQKRGTPINRIPIMAKQILDLYMLYKLVTEKGGLVEIINKKIWREITKGLNLPTSITSAAFTLRTQYMKYLYAYECEKKALSSPAELQAAIDGNRREGRRPSYSSSLFGYSPAAATAAAAAGAPALLSPPKIRFPILGLGSSSGTNTSSPRISPATTLRKGDGAPVTTVPVPNRLAVPVTLASQQAGTRTAALEQLRERLESGEPAEKKASRLSEEEQRLVQQAFQRNFFSMARQLPMKIRINGRAEDRAEASAAALNLTTSSIGSINMSVDIDGTTYAGVLFAQKPVVHLITGSAPQSLGSSASSSSSSHCSPSPTSSRGTPSAEPSTSWSL
B5: PRMT2, P55345 (protein)
chain: MATSGDCPRSESQGEEPAECSEAGLLQEGVQPEEFVAIADYAATDETQLSFLRGEKILILRQTTADWWWGERAGCCGYIPANHVGKHVDEYDPEDTWQDEEYFGSYGTLKLHLEMLADQPRTTKYHSVILQNKESLTDKVILDVGCGTGIISLFCAHYARPRAVYAVEASEMAQHTGQLVLQNGFADIITVYQQKVEDVVLPEKVDVLVSEWMGTCLLFEFMIESILYARDAWLKEDGVIWPTMAALHLVPCSADKDYRSKVLFWDNAYEFNLSALKSLAVKEFFSKPKYNHILKPEDCLSEPCTILQLDMRTVQISDLETLRGELRFDIRKAGTLHGFTAWFSVHFQSLQEGQPPQVLSTGPFHPTTHWKQTLFMMDDPVPVHTGDVVTGSVVLQRNPVWRRHMSVALSWAVTSRQDPTSQKVGEKVFPIWR
B6: TRIM15, Q9C019 (protein)
chain: MPATPSLKVVHELPACTLCAGPLEDAVTIPCGHTFCRLCLPALSQMGAQSSGKILLCPLCQEEEQAETPMAPVPLGPLGETYCEEHGEKIYFFCENDAEFLCVFCREGPTHQAHTVGFLDEAIQPYRDRLRSRLEALSTERDEIEDVKCQEDQKLQVLLTQIESKKHQVETAFERLQQELEQQRCLLLARLRELEQQIWKERDEYITKVSEEVTRLGAQVKELEEKCQQPASELLQDVRVNQSRCEMKTFVSPEAISPDLVKKIRDFHRKILTLPEMMRMFSENLAHHLEIDSGVITLDPQTASRSLVLSEDRKSVRYTRQKKSLPDSPLRFDGLPAVLGFPGFSSGRHRWQVDLQLGDGGGCTVGVAGEGVRRKGEMGLSAEDGVWAVIISHQQCWASTSPGTDLPLSEIPRGVRVALDYEAGQVTLHNAQTQEPIFTFTASFSGKVFPFFAVWKKGSCLTLKG
B7: PBX2, P40425 (protein)
chain: MDERLLGPPPPGGGRGGLGLVSGEPGGPGEPPGGGDPGGGSGGVPGGRGKQDIGDILQQIMTITDQSLDEAQAKKHALNCHRMKPALFSVLCEIKEKTGLSIRSSQEEEPVDPQLMRLDNMLLAEGVAGPEKGGGSAAAAAAAAASGGGVSPDNSIEHSDYRSKLAQIRHIYHSELEKYEQACNEFTTHVMNLLREQSRTRPVAPKEMERMVSIIHRKFSAIQMQLKQSTCEAVMILRSRFLDARRKRRNFSKQATEVLNEYFYSHLSNPYPSEEAKEELAKKCGITVSQVSNWFGNKRIRYKKNIGKFQEEANIYAVKTAVSVTQGGHSRTSSPTPPSSAGSGGSFNLSGSGDMFLGMPGLNGDSYSASQVESLRHSMGPGGYGDNLGGGQMYSPREMRANGSWQEAVTPSSVTSPTEGPGSVHSDTSN

The binders below were run against nucleoprotein N of Crimean-Congo hemorrhagic fever virus (assay: AlphaScreen luminescence signal relative to Venus negative control (fold); higher = stronger binding to CCHFV N).
Method: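 AlphaScreen binding of cell-free made, FLAG-GST-tagged human transcription factors and regulators (crude translation products) to biotinylated N protein; signal as fold of the FLAG-GST-Venus control. One pass.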

| Binder | AlphaScreen luminescence signal |
| --- | --- |
| B1 | 3.02 |
| B2 | 5.4 |
| B3 | 14.4 |
| B4 | 1.21 |
| B5 | 2.28 |
| B6 | 2.14 |
| B7 | 2.42 |
